Assay results as given in the supplement of paper PMC4166925.
± gives the standard deviation of the averaged measurements. Whole data set: some 33,000 sequences, median “E-score (dimensionless, -0.5 to 0.5)” near -0.046, cut for the highest 2% near 0.36. Some of the results follow.

Test system: T1, SpTbr T-box DNA-binding domain (GST fusion)
T1 sequence: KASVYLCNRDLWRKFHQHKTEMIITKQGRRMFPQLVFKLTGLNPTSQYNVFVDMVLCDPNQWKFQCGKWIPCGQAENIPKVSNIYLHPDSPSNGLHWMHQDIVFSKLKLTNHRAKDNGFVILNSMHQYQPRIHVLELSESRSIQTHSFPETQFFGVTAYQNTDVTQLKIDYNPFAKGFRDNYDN
Test: PBM E-score of 8-mer (E-score (dimensionless, -0.5 to 0.5)); Tbr is Tbrain of the sea star Patiria miniata (Pm) or the sea urchin Strongylocentrotus purpuratus (Sp); higher = stronger binding preference; most listed sequences are background and not binding sites
Details: the construct has about 5 more residues each side
Summary of the method: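 Universal Agilent oligonucleotide arrays, made double-stranded by primer extension, were incubated with 200 nM GST-fused Tbr T-box DNA-binding domain in PBS (pH 7.5). The protein was expressed in BL21 E. coli at 20 °C and purified by glutathione affinity chromatography. After scanning and quantification, the Universal PBM Analysis Suite assigned an enrichment E-score to each ungapped 8-mer, averaged over duplicate arrays.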

Row | Sequence | PBM E-score of 8-mer
1 | AACCAGAA | -0.0398 ± 0.053
2 | GAAAGTGA | 0.293 ± 0.039
3 | CTGCACTA | -0.143 ± 0.036
4 | AGGCATAA | -0.0385 ± 0.0084
5 | CAATATAG | 0.123 ± 0.0026
6 | CAGAAAGC | -0.145 ± 0.0036
7 | AAGTCCGT | -0.226 ± 0.082
8 | GGTTTAAA | 0.00385 ± 0.043
9 | ACGTCGAA | -0.282 ± 0.012
10 | GTGCACAA | 0.0631 ± 0.03
11 | ATTGTCTG | -0.14 ± 0.011
12 | ATGGTCGG | -0.283 ± 0.032
13 | AGTACCGC | -0.0243 ± 0.026
14 | TAATTGTA | -0.195 ± 0.023
15 | AGAACCTC | -0.254 ± 0.048
16 | CTGGGGAA | 0.00742 ± 0.052
17 | ATCATCAC | 0.326 ± 0.017
18 | CCGTAGCG | -0.206 ± 0.048
19 | ACACCGTA | 0.154 ± 0.0081
20 | ACTTCGCA | 0.326 ± 0.026
21 | CCTCATCC | 0.0715 ± 0.023
22 | CAGGTAGC | -0.11 ± 0.032
23 | TCAAGTGA | 0.1329 ± 0.00054
24 | CTACGGGC | -0.121 ± 0.051
25 | TCTCAGAA | -0.187 ± 0.048

Row | Sequence | PBM E-score of 8-mer
26 | CAATGCGC | 0.0773 ± 0.04
27 | TGGGAAAA | 0.0488 ± 0.15
28 | AAGCATTA | -0.142 ± 0.013
29 | AATATTGA | -0.146 ± 0.043
30 | CCCTACCC | -0.198 ± 0.082
31 | GACGTGCA | 0.0705 ± 0.07
32 | AGATGACT | -0.237 ± 0.019
33 | AGGCCTCG | -0.0653 ± 0.048
34 | AATATTCG | 0.045 ± 0.067
35 | GCAAACGC | 0.0423 ± 0.015
36 | GACGTATC | -0.23 ± 0.0087
37 | CAATCTCG | 0.062 ± 0.045
38 | AAGGACGA | -0.228 ± 0.029
39 | ATGCTCCA | -0.113 ± 0.012
40 | GAATTCGC | 0.225 ± 0.025
41 | AAAAGAGG | -0.0911 ± 0.049
42 | CGACGCCG | 0.223 ± 0.069
43 | GCTTTGAC | -0.0492 ± 0.03
44 | ACCGGGCC | -0.316 ± 0.077
45 | ACCGACAC | 0.373 ± 0.0082
46 | AGGTATAC | -0.181 ± 0.019
47 | TAGTAGGA | -0.239 ± 0.027
48 | ACTAACAA | 0.152 ± 0.039
49 | TCCAACAA | -0.0144 ± 0.034
50 | CTCCATTA | -0.24 ± 0.052

Row | Sequence | PBM E-score of 8-mer
51 | AGGCAGCA | -0.289 ± 0.0042
52 | AAGGTGAT | 0.384 ± 0.023
53 | CGTGCCAG | 0.074 ± 0.014
54 | AATATAAT | -0.041 ± 0.066
55 | CCGACGAC | 0.0212 ± 0.0075
56 | ACCACAAA | 0.0425 ± 0.086
57 | CCTTAGAC | -0.0786 ± 0.058
58 | ATCGTCCC | -0.0441 ± 0.051
59 | AACCTCGC | 0.152 ± 0.055
60 | CCCTCCAG | -0.155 ± 0.045
61 | GACCGAGA | -0.0281 ± 0.065
62 | AAGCGTCG | 0.1316 ± 0.00061
63 | GTTGCCGA | -0.0561 ± 0.0099
64 | CCTACGCA | -0.1428 ± 0.0014
65 | CGTCTTCC | -0.0481 ± 0.023
66 | GCCATCAA | -0.0438 ± 0.039
67 | TAACTTGA | -0.136 ± 0.026
68 | AGCCTACT | 0.0364 ± 0.071
69 | AGTCGCTC | -0.0374 ± 0.084
70 | CAGCATTC | -0.0687 ± 0.068
71 | ATCTGAAC | -0.0859 ± 0.069
72 | ACTTCTGG | 0.0934 ± 0.0018
73 | CGATGCTA | -0.161 ± 0.096
74 | CATGACAC | 0.3587 ± 0.0021
75 | CCAACATA | 0.0222 ± 0.06

Row | Sequence | PBM E-score of 8-mer
76 | CAAGTCTG | 0.0682 ± 0.034
77 | CCCTAAGC | -0.117 ± 0.039
78 | CGTGCGCA | 0.155 ± 0.0026
79 | CAGGGTGA | 0.165 ± 0.08
80 | CGTCTACA | 0.0944 ± 0.046
81 | AACGGATG | -0.0443 ± 0.056
82 | GTTCGGTA | 0.0494 ± 0.029
83 | TGGCCGAA | -0.0438 ± 0.0043
84 | CTCTCATA | -0.181 ± 0.059
85 | GTTACATA | -0.171 ± 0.031
86 | ACTTTGTG | 0.136 ± 0.035
87 | ACCAAATA | -0.238 ± 0.024
88 | CGCCACGA | 0.123 ± 0.035
89 | GCCTGCAC | -0.0663 ± 0.051
90 | ACGCGGGA | -0.0291 ± 0.00045
91 | AGGGGATG | -0.135 ± 0.0024
92 | AAGTAGGC | -0.00358 ± 0.02
93 | AGATGCCG | -0.254 ± 0.013
94 | ACGATGGA | -0.0806 ± 0.066
95 | CGGAACCA | -0.0889 ± 0.05
96 | CGGCCCAA | -0.183 ± 0.0043
97 | ATTGATGA | -0.186 ± 0.0038
98 | GACTAGCC | -0.138 ± 0.088
99 | ACCGCGAG | 0.175 ± 0.062
100 | TTAGTAAA | -0.0914 ± 0.011

Row | Sequence | PBM E-score of 8-mer
101 | CCCATGCA | 0.105 ± 0.005
102 | TCTATAAA | -0.098 ± 0.081
103 | CATCTTAC | -0.252 ± 0.059
104 | ACAACTAT | 0.161 ± 0.039
105 | AGCATAGG | -0.286 ± 0.0046
106 | CGGATATC | -0.0915 ± 0.077
107 | ATAGTCGA | -0.155 ± 0.026
108 | ACACTAGA | 0.197 ± 0.025
109 | AGGGCTTC | -0.088195 ± 2.1e-05
110 | ATCAAGAT | -0.102 ± 0.0084
111 | GGCCGATA | -0.0792 ± 0.048
112 | ACCTATCG | 0.142 ± 0.07
113 | TTCACGAA | 0.144 ± 0.088
114 | ATGGCTTA | -0.119 ± 0.019
115 | TACTTTAA | 0.0154 ± 0.047
116 | ACAAGGGG | -0.125 ± 0.035
117 | CAGGCCCC | -0.3182 ± 0.0026
118 | CCAATATA | -0.167 ± 0.11
119 | CATTCCGG | -0.196 ± 0.03
120 | GCCATTAC | -0.135 ± 0.09
121 | GCTATAGC | -0.151 ± 0.0042
122 | AAGCTAGG | -0.197 ± 0.064
123 | CCCCAGTC | -0.119 ± 0.018
124 | CAGCAATA | -0.0531 ± 0.095
125 | GCTTGTTA | 0.0822 ± 0.0027

Row | Sequence | PBM E-score of 8-mer
126 | GCCCTTTA | -0.275 ± 0.063
127 | AATAAGCT | -0.0698 ± 0.032
128 | ACCACCAT | 0.108 ± 0.082
129 | GATTTAAA | -0.0862 ± 0.033
130 | CGTCTTGC | -0.0802 ± 0.039
131 | AGAATCCG | -0.035 ± 0.078
132 | AATCTTCT | -0.185 ± 0.089
133 | TCGGGAGA | -0.0812 ± 0.019
134 | CTGTCTTA | -0.141 ± 0.05
135 | AGACACGG | 0.0261 ± 0.016
136 | CGACTAGC | 0.261 ± 0.0043
137 | ATGCCCCA | -0.228 ± 0.02
138 | CAAGGAGG | -0.154 ± 0.027
139 | AGCCGAGA | 0.0289 ± 0.0091
140 | GGCACCCC | 0.22 ± 0.003
141 | CTGTGACA | 0.31 ± 0.011
142 | ATAGACGC | 0.0267 ± 0.032
143 | ATCAGGAA | -0.0873 ± 0.02
144 | CCGCTGCA | 0.0158 ± 0.029
145 | CTGCGAAG | 0.2479 ± 0.0022
146 | AACAGAGC | 0.00334 ± 0.047
147 | AACATCTG | -0.0309 ± 0.00087
148 | CAACAACC | 0.0912 ± 0.017
149 | CTAAGTTA | -0.13 ± 0.13
150 | AAGATCAT | -0.117 ± 0.044

Row | Sequence | PBM E-score of 8-mer
151 | CCTCTGAC | -0.0787 ± 0.017
152 | CGAGCCAC | 0.0407 ± 0.0043
153 | TCCTCAGA | -0.0505 ± 0.044
154 | CGCGCAAG | 0.205 ± 0.018
155 | ACATTTTG | 0.0222 ± 0.062
156 | CCGAATAA | -0.0137 ± 0.0092
157 | CCACAAAG | -0.104 ± 0.047
158 | ACCCACAT | 0.19 ± 0.023
159 | GTACGCTA | -0.136 ± 0.0079
160 | ACAGAAGA | -0.244 ± 0.027
161 | ACGGTGTG | 0.3578 ± 0.0014
162 | AACACGCA | 0.21 ± 0.022
163 | CGTCTCCC | -0.168 ± 0.07
164 | AGACTTGA | -0.0714 ± 0.084
165 | GCATGCGC | -0.0608 ± 0.0047
166 | AGTACAAT | -0.107 ± 0.0088
167 | TGTTGGAA | 0.102 ± 0.079
168 | CATGCCCC | -0.219 ± 0.047
169 | GGCTCAAC | -0.283 ± 0.031
170 | CCGAAATC | -0.048 ± 0.0049
171 | CGTCTTAC | -0.194 ± 0.001
172 | CCCTTACG | -0.0777 ± 0.068
